# From the supplement of paper PMC10126150
# Sequences with one replicate were seen in a single cluster, so their values are uncertain.
# System: ATP
# Experiment: switch fluorescence ratio, 500 uM ATP over buffer (Cy3 cluster intensity, sum of 5 cycles each) (fold (ratio)); higher = stronger signal-on switching upon ATP binding; sequences stand for … in TCGTCGGCAGCGTCAGATGTGTATAAGAGACAGTTTTTTTTTTTTTTTTTTTTTTTTT…TC
# Conditions: aptamer strand: ATP DNA aptamer (quencher-CACCTGGGGGAGTATTGCGGAGGAAGG + anchor), 100 nM annealed; ATP concentration: 500 uM; one replicate
# Method in brief: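 Five buffer/ATP imaging cycles were run on Cy3-labelled switching-strand clusters on a modified Illumina MiSeq flow-cell, with NaOH stripping and re-annealing between cycles. In each cycle, clusters annealed to 100 nM quencher-labelled ATP aptamer were imaged in selection buffer, then after 15 min with 500 uM ATP at 22 °C. Per cluster, the fluorescence ratio is summed target-cycle over summed buffer-cycle Cy3 intensity, averaged per switch-domain sequence. Only clusters within 100-1000 RFU were kept.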
# 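Note: ATP exposure 15 min at 22 °C before imaging.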
row,Sequence,switch fluorescence ratio
1,CCTGGTATAA,1.02
2,AAAGACTAA,0.988
3,GGCTCTACGA,1.01
4,ATAGCACACC,1.15
5,TCCATAGGCT,0.989
6,GTGACAAAGG,1.01
7,TGCCAACGGG,0.965
8,GTACTATAGG,0.975
9,TGGATCAAGA,1.04
10,GTGTTGAAAA,0.974
11,TTTAAGGTG,1.44
12,CCTTGGGTCG,1.01
13,ATGGAGTAGA,1.04
14,ACTTTCACGT,1.21
15,TAAATTCCAC,0.985
16,GAGCTTACGA,1.13
17,ATGAAAGGTA,1.03
18,GATTTAACCA,0.963
19,ATCGTGATAC,4.58
20,TGACTGTGGG,0.957
21,ATAAAGCCTC,0.979
22,CCGGGAATGG,1.7
23,ACTTCCGGTC,1.26
24,TTACGCGAA,1.03
25,CAGATTGTTG,0.968
26,GCTATTGTGG,0.972

row,Sequence,switch fluorescence ratio
1,ACTGGGCTC,0.975
2,GTCACGGCTG,1.05
3,CGAATACGCG,1.04
4,CGGGCAATT,1.57
5,ATCGTAATAG,1.34
6,TTCAACGGTT,1.11
7,CCTATCTTGC,1.04
8,TTCGTATGGT,0.965
9,TTTCAGTAA,1.28
10,TTTAATTCAA,0.971
11,GTCTTCTGCG,1.04
12,TGGGTCGGCG,1.03
13,TCCTGGTTGC,1.06
14,AATCGACGGA,1.04
15,CCCAAATGGT,1.02
16,CACACCTTCA,2.2
17,ACGTCTTTCG,0.958
18,GGAGACACGG,0.982
19,AGTAGTCCAT,0.931
20,TCTATAGGGA,1.03
21,TCGGCCAA,1.05
22,CCACTGGTAT,1.04
23,TCTAAGGCAT,1.02
24,AAGGTGTCCG,0.975
25,ATATTCCTGC,0.976
26,CGCGGCGAGA,1.01

row,Sequence,switch fluorescence ratio
1,GGAAGTGCGT,0.994
2,GCCCCTGAGT,1.11
3,TGGGTGACCG,0.996
4,ATCATACTAA,1.04
5,ACGAAAGGGG,1.04
6,AGAGGGAGGC,0.921
7,GTTGTTTATG,0.966
8,AGATTAAAAC,0.99
9,GGAATCCCTG,1.04
10,CGCTACGGGA,1.08
11,CATGACCCCT,1.08
12,GCGCGGTAGC,0.983
13,ATGTCATTTG,1
14,CTGAAATGA,1.02
15,GTTCCCCTTG,0.947
16,GGGTGAACCG,0.962
17,AACGACCTAG,0.987
18,CGTTAGAGGT,0.998
19,GGTGTATGTG,0.996
20,ACCCGTTCCC,1.02
21,CACTAACGAC,1.32
22,AAACAGTCTG,0.996
23,GACTGAAATG,0.999
24,CGCTCCTACA,1.09
25,GAATGCACGT,0.983
26,GACATTTCAA,0.951

row,Sequence,switch fluorescence ratio
1,AAAAAGCGTC,1.09
2,CCAGAGGAGT,1.02
3,AATTAATCCG,1.03
4,GACTGGTTGT,0.99
5,AGGCGTTTCG,1.03
6,GCGGGGCGG,1.04
7,TTCCGGACC,1.12
8,CCTCTTGGGT,0.999
9,CCACCGATTC,3.83
10,ATCAGACATT,0.982
11,TATATCGCA,1
12,ATGCCAACCA,1.01
13,ACATTGAATA,1.05
14,ATTATTATTA,1.04
15,CCGCTTGAGT,1.16
16,AGGGGGTGT,1.03
17,CCAGCTTTCG,1.09
18,GGGATGACGT,0.943
19,AATCTAAATC,1.02
20,GCTCTGAGGT,1.01
21,TAATGTTAAG,0.962
22,AATTCGGAGG,0.987
23,CGCTTGCGAG,1.03
24,ACGAACGTGG,1.1
25,TTCTAATGCG,1.04
26,CGCATACGTG,1.53

row,Sequence,switch fluorescence ratio
1,GATATTTATC,1.03
2,AACGACCTTC,1.64
3,AGGAAGTGGA,1.01
4,AATCGTACGG,1.01
5,GTAATAGCGA,0.98
6,CTTAGAGCAA,1.92
7,TGCCCGGGCT,0.983
8,TAACTATGAA,0.949
9,AGGGAGTCGT,1.11
10,TGCTCAGAAG,0.949
11,TGGTCTTGGC,0.994
12,ACCCAACGGA,1.19
13,CGGTTTTGCA,1.01
14,GCCATGGTAC,1.06
15,TATTATAGTT,1
16,AAAACGGGAG,1.04
17,CAAACAGCTT,1.01
18,GACGCATTGA,3.09
19,TGAATATGAA,1.02
20,TGAGGCTCCT,1.04
21,TTAGTGAGGA,1.05
22,GAATCGCTAT,1.05
23,TATTCGGTGT,0.973
24,GGTAGTTGAA,0.932
25,TGACATTAGA,0.967
26,AATTCGTGC,1.04

row,Sequence,switch fluorescence ratio
1,TTAAGTAAGC,1.14
2,TCGATTACCT,1.21
3,CCATTGCAGC,2.17
4,TCGACTTTCC,1.74
5,CATTGCCGGT,1.03
6,GTATTAACGA,1.05
7,GTATAATAGG,0.994
8,AAGGTCATGT,0.997
9,CATAGGATAA,1.02
10,GAATATGCTT,1.02
11,ATGTATCGAC,1.04
12,CCCTACATGG,1.04
13,AGCCTTAGTT,0.975
14,ATTTTAAAGC,1.04
15,CGATAGAAGG,0.983
16,TCATCCAGTT,1.04
17,AACTATCTTA,0.996
18,ATACCTGATA,1.07
19,CAGCGGTTAG,0.943
20,GCTCTTGTC,0.992
21,GATGGTCGA,0.971
22,ATATGTCAG,1.04
23,TTTCGATACT,1.01
